Results as given in PubChem BioAssay AID686979 (National Center for Advancing Translational Sciences (NCATS), 2013).
Values joined by “and” are separate entries in the source; they are usually repeats but may differ in a detail not shown here. Identical values can stand only once. Hit rate of the full screen: of about 420,000 compounds, about 50,000 (12%) were called active. The shares of active, inactive and inconclusive entries below differ from those in the screen. Calls come from the whole dose curve; as a rule, active = well fitted inhibition curve with a large enough effect; inconclusive = small, poorly fitted or top-dose-only effect; inactive = flat fitted curve, though single readings scatter. Potencies of inconclusive entries are doubtful fits and often do not repeat.

Assay: qHTS for Inhibitors of human tyrosyl-DNA phosphodiesterase 1 (TDP1): qHTS in cells in presence of CPT; note: nearly all actives have a fitted effect of over 55% in size
Details: chicken DT40 Tdp1-/-;hTDP1 cells + 20 nM CPT, ATP luminescence, 48 h; activity change, negative = growth inhibition: at 46.2 µM (top of the series)
In short: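 Cell growth measured by CellTiter-Glo luminescence after a minimum 48 h, 37 C compound exposure with 20 nM CPT in Tdp1-knockout DT40 cells stably expressing hTDP1, seeded 400/well; qHTS titration format.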
% is set by controls: 0 for no effect and ±100 for the full control effect; potency is the fitted concentration of half-maximal effect; tags give direction and shape of the fitted curve.

SMILES | Potency | activity change, negative = growth inhibition
CCc1nc2ccccc2c(=O)n1NC(=O)c1c(O)c2ccccc2n(CC)c1=O | inconclusive: 29.1 µM [inhibitor, single point] | 
N=c1c(C(=O)NCc2ccc(F)cc2)cc2c(=O)n3ccccc3nc2n1Cc1ccco1 | active: 16.4 µM | 
Cc1[nH]n(C(N)=S)c(=O)c1N=Nc1ccc(S(=O)(=O)N2CCCCCC2)cc1 | inconclusive: 25.9 µM [inhibitor, partial curve] | 
CCCCn1[nH]c(-c2ccccc2)cc1=O | inconclusive: 20.6 µM [inhibitor, single point] | 
CCC(=O)Nc1ccccc1-c1nc2ccccc2n(C(C)C(=O)Nc2ccc(OC)cc2)c1=O (stereo not given) | inconclusive: 29.1 µM [inhibitor, single point] | 
COc1ccc(C(=O)NC(=S)NCCO)cc1Br | inconclusive: 13 µM [inhibitor, partial curve] | 
O=C(Nc1ccc(S(=O)(=O)NCc2cccnc2)cc1)c1ccccc1Cl | active: 13 µM | 
COc1cccc(/C=N/NC(=O)CSc2ccccc2C)c1OC |  | inactive: 3.88%
O=C(O)c1ccc(-c2ccc(/C=N/Nc3ccc([N+](=O)[O-])cc3)o2)cc1 | inconclusive: 25.9 µM [inhibitor, single point] | 
Cc1noc(NS(=O)(=O)c2ccc(NS(=O)(=O)c3ccc(Cl)cc3)cc2)c1C |  | inactive: -0.288%
CCCCn1c(N)c(N(CCOC)C(=O)COC(=O)COc2ccccc2C#N)c(=O)[nH]c1=O |  | inactive: -12.1%
COc1ccc(S(=O)(=O)NCCC(=O)Nc2ccc(C)cc2)cc1 |  | inactive: -4.01%
CCc1ccc(C2C(C(=O)Nc3ccc(Cl)cc3)=C(C)Nc3ncnn32)cc1 (stereo not given) | inconclusive: 29.1 µM [inhibitor, single point] | 
CN(C)S(=O)(=O)c1cccc(NC(=O)COC(=O)c2cccc(S(=O)(=O)N3CCc4ccccc4C3)c2)c1 | inconclusive: 16.4 µM [inhibitor, single point] | 
c1ccc2oc(C3=NNC(=NC4CC4)SC3)cc2c1 | inconclusive: 25.9 µM [inhibitor, single point] | 
O=C(COc1ccccc1C(=O)N/N=C\c1ccc(O)c(O)c1)N/N=C/c1ccc(O)c(O)c1 | active: 16.4 µM | 
Cc1ccc(O)c(C(=O)c2cnn(C(=O)Cc3csc(C)n3)c2)c1 | inconclusive: 14.6 µM [inhibitor, partial curve] | 
COc1cccc(C2C(=O)N(C3CCCCC3)CC(=O)N2Cc2ccc(Cl)cc2)c1 (stereo not given) | inconclusive: 16.4 µM [inhibitor, single point] | 
O=C(NCC1OCCc2ccccc21)c1ccc(NC(=O)c2cccc(Br)c2)cc1 (stereo not given) | active: 7.31 µM | 
Cc1cc(NC(=O)N2CCC(CN3CCOCC3)CC2)ccc1Br | inconclusive: 20.6 µM [inhibitor, single point] | 
CC1CN(Cc2ccccc2)c2nc3c(c(=O)n(C)c(=O)n3C)n2C1 (stereo not given) | inconclusive: 29.1 µM [inhibitor, single point] | 
CCOC(=O)C1(C)CCN1C(=O)c1ccc(SC(F)(F)F)cc1 (stereo not given) | active: 18.4 µM | 
O=C(CN1CCOCC1)Nc1c2c(nc3ccccc13)N(Cc1ccccc1)CC2 |  | inactive: -26%
COc1ccc(CCC(=O)OCC(=O)c2c(N)n(CC(C)C)c(=O)n(C)c2=O)cc1 | inconclusive: 0.82 µM [inhibitor, full curve, poor fit] | 

SMILES | Potency | activity change, negative = growth inhibition
O=C(CSc1nnnn1-c1cccnc1)Nc1ccc(OCc2ccccc2)cc1 | inconclusive: 29.1 µM [inhibitor, partial curve, poor fit] | 
CCOc1ccccc1C1C(C#N)=C(N)SC(N)=C1C#N | inconclusive: 23.1 µM [inhibitor, single point] | 
C=CCn1c(C)cc(C(=O)CSc2nc3ccccc3[nH]2)c1C | active: 20.6 µM | 
CCOc1ccc(CCNC(=O)c2cc(-c3ccccc3)c(N3CCOCC3)s2)cc1 | inconclusive: 14.6 µM [inhibitor, single point] | 
O=C(N[C@@H](Cc1ccc(Br)cc1)C(=O)O)OCC1c2ccccc2-c2ccccc21 | inconclusive: 9.2 µM [inhibitor, partial curve] | 
O=C(/C=C/c1c(F)cccc1Cl)NCc1ccco1 |  | inactive: -2.23%
COCCNC(=O)C(=O)Nc1ccc(Br)cc1 |  | inconclusive: -37.7% [inhibitor]
Cc1ccc(NC(=O)C(=O)NCc2ccccn2)cc1 |  | inactive: 14.7%
Cc1ccc(C)c(Cn2c3ccccc3c3cnn(CC(=O)NCCN4CCOCC4)c(=O)c32)c1 | active: 16.4 µM | 
c1ccc(CCN(Cc2ccccc2)C2CCN(C3CCCC3)CC2)cc1 |  | inactive: 0.721%
O=C(CSc1nc2ccccc2c(=O)n1CCCN1CCOCC1)NC12CC3CC(CC(C3)C1)C2 | inconclusive: 16.4 µM [inhibitor, single point] | 
CC(=O)/C=C\C1[C@]2(C)CCCC(C)(C)C2CC[C@@]1(C)O (stereo not given in full) |  | inactive: -0.36%
O=[N+]([O-])c1ccc(N2CCN(Cc3ccc(Br)o3)CC2)cc1 | inconclusive: 18.4 µM [inhibitor, single point] | 
CCC(C)Nc1nc(-c2ccc3c(c2)NC(=O)CO3)cs1 (stereo not given) | active: 23.1 µM | 
O=C(Nc1ccccc1)N1CCN(Cc2ccc(Cl)cc2)CC1 | inconclusive: 29.1 µM [inhibitor, single point] | 
CCOc1cc(C(=O)Nc2ccc(-c3nc4cc(Cl)ccc4o3)cc2)cc(OCC)c1OCC |  | inconclusive: -17.7% [inhibitor]
O=C(CSCc1c(Cl)cccc1Cl)Nc1ccccc1C(=O)N1CCOCC1 | inconclusive: 25.9 µM [inhibitor, single point] | 
Cc1nnsc1C(=O)NC1CCCCC1 |  | inactive: -7.78%
Cc1ccc(S(=O)(=O)N2C[C@H]3[C@H]4C(=O)N(Cc5ccccc5)C(=O)[C@H]4CC(=O)[C@H]3[C@@H]2c2ccccc2)cc1 | inconclusive: 29.1 µM [inhibitor, single point] | 
CC1CN(C(=S)Nc2ccccc2)C(C)CN1C=O (stereo not given) |  | inactive: -17%
COc1ccc(Cl)cc1NC(=O)CN(C)C(=O)/C=C/c1ccco1 |  | inactive: -25.4%
CCN(CC)S(=O)(=O)c1cc(C(=O)OC(C)C(=O)NCc2ccco2)ccc1C (stereo not given) | inconclusive: 13 µM [inhibitor, partial curve] | 
O=C(C(=O)N1CCC(Cc2ccccc2)CC1)c1ccccc1Br | inconclusive: 18.4 µM [inhibitor, single point] | 
CCn1nc(C)cc1C(=O)NCC1CCC2(CCN(Cc3ccccc3F)CC2)O1 (stereo not given) |  | inactive: -12.2% [at 9.04 µM]

SMILES | Potency | activity change, negative = growth inhibition
CCOc1cc2[nH]c(=S)n(Cc3ccc(C)o3)c(=O)c2cc1OCC | active: 29.1 µM | 
N#Cc1cc(-c2ccc(Cl)cc2)cn(Cc2c(Cl)cccc2Cl)c1=O |  | inconclusive: -34.5% [inhibitor]
Cc1ccc(S(=O)(=O)Nc2cccc(-n3cnnn3)c2)cc1 |  | inactive: 32.2%
CCOC(=O)c1cc(OCC)c2c(ccc3cc(OC)ccc32)n1 | inconclusive: 20.6 µM [inhibitor, partial curve, poor fit] | 
CCOC(=O)N1CCN(C(=O)c2ccc3c(=O)n(CCc4ccc(OC)c(OC)c4)c(=O)[nH]c3c2)CC1 | active: 20.6 µM | 
Cc1ccccc1CN1C[C@@H]2C[C@@H](c3cnc(N4CCOCC4)s3)N3CCC[C@@]23C1=O |  | inactive: -2.14%
COc1ccc(CNC(=O)CCCc2nnc3n(CCC(C)C)c(=O)c4sccc4n23)cc1 | active: 18.4 µM | 
CC(=O)c1ccc(OC(C)C)c(CC(C(N)=O)C(N)=O)c1 | inconclusive: 0.326 µM [inhibitor, single point] | 
O=C(/C=C/c1ccccc1)Nc1nnc(-c2ccco2)o1 | inconclusive: 29.1 µM [inhibitor, partial curve, poor fit] | 
CCOc1ccc(-c2csc3ncn(-c4ccc(OC)cc4)c(=O)c23)cc1 | inconclusive: 20.6 µM [inhibitor, single point] | 
CCCCNc1c(-c2ccc(-c3ccc(C(C)=O)cc3)c(OC)c2)nc2cnccn12 | active: 10.3 µM | 
CSCC[C@H](NC(=O)OC(C)(C)C)C(=O)N1CCC(C(=O)N[C@@H](C)C(=O)O)CC1 |  | inactive: -10%
O=C(Cc1c(F)cccc1Cl)OCC(=O)N1CCN(c2ccccc2)CC1 | active: 18.4 µM | 
COc1ccc(CCNC(=O)c2ccc3c(c2)c(C)c(C)n3Cc2ccccc2)c(OC)c1OC | active: 23.1 µM | 
COc1ccc(CNC(=O)COC(=O)/C=C/c2cccc(Br)c2)cc1OC | inconclusive: 9.2 µM [inhibitor, partial curve, poor fit] | 
CCc1nn(CCCC(=O)N2CCN(c3ccc(OC)cc3)CC2)c(=O)c2cc3occc3n12 | inconclusive: 20.6 µM [inhibitor, single point] and inconclusive: 29.1 µM [inhibitor, single point] | 
CC(C)Cc1nnc(NC(=O)CCS(=O)(=O)c2ccc(Cl)cc2)s1 | active: 20.6 µM | 
CC(C)c1ccc(CC(=O)N2CCC2(C)C(=O)NS(=O)(=O)c2ccc(C(C)(C)C)cc2)cc1 (stereo not given) |  | inactive: -11.2%
O=C(c1cc(C(F)(F)F)cc(C(F)(F)F)c1)N1CCC2(CC1)CCN(c1ncccn1)CC2 | inconclusive: 29.1 µM [inhibitor, single point] | 
CC1CN(C(=O)CN2C(=O)NC(C)(c3ccccc3)C2=O)CC(C)O1 (stereo not given) |  | inconclusive: -27.6% [inhibitor]
O=C(CSc1ncccc1C(=O)O)c1ccc2ccccc2c1 |  | inconclusive: -31.4% [inhibitor]
CCCCCCn1cnc2c(c1=O)c1nc3ccccc3nc1n2/N=C/c1ccco1 | inconclusive: 20.6 µM [inhibitor, single point] | 
